{"source": "the supplement of paper PMC12217912", "parents": {"B1": {"name": "TEV protease; numbered along this chain (parent)", "chain": "MGESLFKGPRDYNPISSSICHLTNESDGHTTSLYGIGFGPFIITNKHLFRRNNGTLVVQSLHGVFKVKDTTTLQQHLVDGRDMIIIRMPKDFPPFPQKLKFREPQREERICLVTTNFQTKSMSSMVSDTSCTFPSGDGIFWKHWIQTKDGQCGSPLVSTRDGFIVGIHSASNFTNTNNYFTSVPKNFMELLTNQEAQQWVSGWRLNADSVLWGGHKVFMVKPEEPFQPVKEATQL"}}, "note": "The other results are listed elsewhere or left out. The full chains were built here from the parent and the listed change. Inactive controls read about 0.05.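 Further: Bxb1 expression induced with 0.2% (w/v) L-rhamnose at OD600 near 0.5, cultures sampled hourly, flipped fraction per protease–substrate barcode pair counted by paired-end Illumina sequencing.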", "data": [{"variants_of": "B1", "assay": "raw area under fraction-flipped curve 0-4 h after induction (AUC4h, not background-subtracted), DNA-recorder readout of cleavage of the substrate (dimensionless); higher = more cleavage of the substrate by the protease variant", "conditions": "temperature: 34 °C; time window: 0-4 h after rhamnose induction", "values": [{"variant": "V64S", "area with substrate ENLEFQS": 0.0558, "area with substrate ENLFFQS": 0.1, "area with substrate ENLGFQS": 0.0643, "area with substrate ENLIFQS": 0.0876, "area with substrate ENLKFQS": 0.093, "area with substrate ENLLFQS": 0.089, "area with substrate ENLMFQS": 0.031, "area with substrate ENLPFQS": 0.054, "area with substrate ENLRFQS": 0.0757, "area with substrate ENLWFQS": 0.078}, {"variant": "G214Q", "area with substrate ENLDFQS": 0.0486}, {"variant": "F95T", "area with substrate ENLEFQS": 0.0487, "area with substrate ENLIFQS": 0.0537, "area with substrate ENLKFQS": 0.0765, "area with substrate ENLLFQS": 0.0507, "area with substrate ENLNFQS": 0.0154, "area with substrate ENLPFQS": 0.0395, "area with substrate ENLQFQS": 0.0611}, {"variant": "I139H", "area with substrate ENLFFQS": 0.0551, "area with substrate ENLIFQS": 0.0566, "area with substrate ENLNFQS": 0.0596, "area with substrate ENLPFQS": 0.0654, "area with substrate ENLVFQS": 0.0774}, {"variant": "E195G", "area with substrate ENLDFQS": 0.0872, "area with substrate ENLEFQS": 0.0679, "area with substrate ENLHFQS": 0.106, "area with substrate ENLIFQS": 0.0891, "area with substrate ENLKFQS": 0.0881, "area with substrate ENLNFQS": 0.0601, "area with substrate ENLQFQS": 0.0742, "area with substrate ENLRFQS": 0.105, "area with substrate ENLSFQS": 0.0602, "area with substrate ENLTFQS": 0.0786, "area with substrate ENLWFQS": 0.0897}, {"variant": "E195V", "area with substrate ENLDFQS": 0.0898, "area with substrate ENLNFQS": 0.0483}, {"variant": "S154Q", "area with substrate ENLFFQS": 0.0919, "area with substrate ENLHFQS": 0.0701, "area with substrate ENLLFQS": 0.0684, "area with substrate ENLMFQS": 0.0543, "area with substrate ENLPFQS": 0.0052, "area with substrate ENLQFQS": 0.0592}, {"variant": "G153E", "area with substrate ENLFFQS": 0.0619, "area with substrate ENLGFQS": 0.0742, "area with substrate ENLHFQS": 0.0527, "area with substrate ENLKFQS": 0.0621, "area with substrate ENLQFQS": 0.0418}, {"variant": "R204A", "area with substrate ENLDFQS": 0.0703, "area with substrate ENLEFQS": 0.12, "area with substrate ENLFFQS": 0.0726, "area with substrate ENLGFQS": 0.0769, "area with substrate ENLHFQS": 0.0743, "area with substrate ENLKFQS": 0.0838, "area with substrate ENLNFQS": 0.0778, "area with substrate ENLPFQS": 0.0614, "area with substrate ENLRFQS": 0.0975, "area with substrate ENLSFQS": 0.0902, "area with substrate ENLVFQS": 0.104}, {"variant": "F6K", "area with substrate ENLGFQS": 0.0633, "area with substrate ENLHFQS": 0.0667, "area with substrate ENLKFQS": 0.0764, "area with substrate ENLNFQS": 0.0683, "area with substrate ENLPFQS": 0.0798, "area with substrate ENLRFQS": 0.065, "area with substrate ENLSFQS": 0.0561, "area with substrate ENLVFQS": 0.0674}, {"variant": "V220T", "area with substrate ENLDFQS": 0.0575, "area with substrate ENLEFQS": 0.0725, "area with substrate ENLHFQS": 0.076, "area with substrate ENLNFQS": 0.0615, "area with substrate ENLRFQS": 0.0753, "area with substrate ENLSFQS": 0.0751, "area with substrate ENLWFQS": 0.0706}, {"variant": "S209L", "area with substrate ENLDFQS": 0.0568, "area with substrate ENLEFQS": 0.0603, "area with substrate ENLFFQS": 0.0884, "area with substrate ENLLFQS": 0.0567, "area with substrate ENLNFQS": 0.0491, "area with substrate ENLQFQS": 0.0621, "area with substrate ENLSFQS": 0.0611, "area with substrate ENLVFQS": 0.065}, {"variant": "G213Q", "area with substrate ENLEFQS": 0.0619, "area with substrate ENLFFQS": 0.0612, "area with substrate ENLIFQS": 0.0643, "area with substrate ENLQFQS": 0.0547}, {"variant": "G213N", "area with substrate ENLFFQS": 0.0664, "area with substrate ENLRFQS": 0.0413}, {"variant": "N186C", "area with substrate ENLEFQS": 0.0676, "area with substrate ENLFFQS": 0.0842, "area with substrate ENLKFQS": 0.0784, "area with substrate ENLMFQS": 0.059, "area with substrate ENLNFQS": 0.0434, "area with substrate ENLRFQS": 0.0691, "area with substrate ENLVFQS": 0.0869}, {"variant": "N186S", "area with substrate ENLDFQS": 0.0604, "area with substrate ENLEFQS": 0.0609, "area with substrate ENLFFQS": 0.0869, "area with substrate ENLGFQS": 0.0633, "area with substrate ENLIFQS": 0.0871, "area with substrate ENLLFQS": 0.0832, "area with substrate ENLNFQS": 0.0538, "area with substrate ENLQFQS": 0.0739, "area with substrate ENLRFQS": 0.0873, "area with substrate ENLSFQS": 0.0679, "area with substrate ENLWFQS": 0.0622}, {"variant": "G35N", "area with substrate ENLKFQS": 0.044, "area with substrate ENLLFQS": 0.0361, "area with substrate ENLMFQS": 0.0299, "area with substrate ENLQFQS": 0.0391}, {"variant": "F218T", "area with substrate ENLEFQS": 0.0666, "area with substrate ENLFFQS": 0.0996, "area with substrate ENLHFQS": 0.0722, "area with substrate ENLMFQS": 0.0738, "area with substrate ENLQFQS": 0.0646}, {"variant": "F218D", "area with substrate ENLEFQS": 0.0646, "area with substrate ENLFFQS": 0.0688, "area with substrate ENLGFQS": 0.0744, "area with substrate ENLIFQS": 0.058, "area with substrate ENLKFQS": 0.0716, "area with substrate ENLNFQS": 0.0668, "area with substrate ENLPFQS": 0.0789, "area with substrate ENLRFQS": 0.0594, "area with substrate ENLSFQS": 0.0603, "area with substrate ENLWFQS": 0.0695}, {"variant": "K221A", "area with substrate ENLEFQS": 0.0633, "area with substrate ENLGFQS": 0.0753, "area with substrate ENLLFQS": 0.0679, "area with substrate ENLMFQS": 0.0684, "area with substrate ENLNFQS": 0.0784, "area with substrate ENLPFQS": 0.0559, "area with substrate ENLQFQS": 0.0708, "area with substrate ENLRFQS": 0.0722, "area with substrate ENLSFQS": 0.053}, {"variant": "K221H", "area with substrate ENLDFQS": 0.0577, "area with substrate ENLEFQS": 0.0572, "area with substrate ENLFFQS": 0.0741, "area with substrate ENLGFQS": 0.0561, "area with substrate ENLHFQS": 0.0612, "area with substrate ENLIFQS": 0.0746, "area with substrate ENLKFQS": 0.0761, "area with substrate ENLLFQS": 0.0701, "area with substrate ENLNFQS": 0.0571, "area with substrate ENLPFQS": 0.0573, "area with substrate ENLRFQS": 0.0695, "area with substrate ENLSFQS": 0.0648, "area with substrate ENLTFQS": 0.0854}, {"variant": "F180A", "area with substrate ENLDFQS": 0.071, "area with substrate ENLFFQS": 0.0684, "area with substrate ENLHFQS": 0.0749, "area with substrate ENLMFQS": 0.0429, "area with substrate ENLPFQS": 0.0562, "area with substrate ENLRFQS": 0.0616}, {"variant": "F180Q", "area with substrate ENLFFQS": 0.0549, "area with substrate ENLKFQS": 0.0456, "area with substrate ENLLFQS": 0.061, "area with substrate ENLPFQS": 0.0392, "area with substrate ENLSFQS": 0.0227}, {"variant": "F101D", "area with substrate ENLFFQS": 0.0727, "area with substrate ENLHFQS": 0.0502, "area with substrate ENLLFQS": 0.0528, "area with substrate ENLNFQS": 0.0439, "area with substrate ENLVFQS": 0.0457}, {"variant": "F92R", "area with substrate ENLSFQS": 0.0382}, {"variant": "P93F", "area with substrate ENLFFQS": 0.0842, "area with substrate ENLGFQS": 0.0619, "area with substrate ENLHFQS": 0.058, "area with substrate ENLKFQS": 0.0688, "area with substrate ENLNFQS": 0.0422}, {"variant": "P93R", "area with substrate ENLGFQS": 0.0448, "area with substrate ENLIFQS": 0.091, "area with substrate ENLQFQS": 0.0712, "area with substrate ENLRFQS": 0.0826}, {"variant": "L235I", "area with substrate ENLEFQS": 0.071, "area with substrate ENLHFQS": 0.0536, "area with substrate ENLNFQS": 0.0463, "area with substrate ENLPFQS": 0.0644, "area with substrate ENLTFQS": 0.0317}, {"variant": "L235G", "area with substrate ENLDFQS": 0.0473, "area with substrate ENLFFQS": 0.0852, "area with substrate ENLLFQS": 0.06, "area with substrate ENLNFQS": 0.0497, "area with substrate ENLQFQS": 0.0682, "area with substrate ENLSFQS": 0.0722, "area with substrate ENLTFQS": 0.0664}, {"variant": "T174V", "area with substrate ENLDFQS": 0.0614, "area with substrate ENLHFQS": 0.0583, "area with substrate ENLKFQS": 0.0834, "area with substrate ENLNFQS": 0.066, "area with substrate ENLSFQS": 0.0634, "area with substrate ENLVFQS": 0.103}, {"variant": "N178F", "area with substrate ENLEFQS": 0.0516, "area with substrate ENLKFQS": 0.153, "area with substrate ENLSFQS": 0.0879, "area with substrate ENLTFQS": 0.068}, {"variant": "N178W", "area with substrate ENLFFQS": 0.109, "area with substrate ENLLFQS": 0.0868}, {"variant": "P184T", "area with substrate ENLDFQS": 0.0682, "area with substrate ENLEFQS": 0.0565, "area with substrate ENLFFQS": 0.0699, "area with substrate ENLHFQS": 0.066, "area with substrate ENLIFQS": 0.0706, "area with substrate ENLKFQS": 0.0654, "area with substrate ENLLFQS": 0.052, "area with substrate ENLMFQS": 0.0429, "area with substrate ENLNFQS": 0.0708, "area with substrate ENLPFQS": 0.0537, "area with substrate ENLQFQS": 0.0689, "area with substrate ENLRFQS": 0.0611, "area with substrate ENLSFQS": 0.0633, "area with substrate ENLVFQS": 0.0442, "area with substrate ENLWFQS": 0.0479}, {"variant": "R102K", "area with substrate ENLFFQS": 0.0829, "area with substrate ENLHFQS": 0.127, "area with substrate ENLLFQS": 0.079, "area with substrate ENLMFQS": 0.0806, "area with substrate ENLNFQS": 0.0686, "area with substrate ENLPFQS": 0.0612, "area with substrate ENLQFQS": 0.0611, "area with substrate ENLRFQS": 0.0765, "area with substrate ENLSFQS": 0.0593, "area with substrate ENLVFQS": 0.102, "area with substrate ENLWFQS": 0.0591}, {"variant": "M83V", "area with substrate ENLEFQS": 0.0539, "area with substrate ENLFFQS": 0.0614, "area with substrate ENLNFQS": 0.0632, "area with substrate ENLQFQS": 0.0423, "area with substrate ENLRFQS": 0.0641, "area with substrate ENLSFQS": 0.0625, "area with substrate ENLWFQS": 0.0721}, {"variant": "Y179V", "area with substrate ENLDFQS": 0.0683, "area with substrate ENLFFQS": 0.0562, "area with substrate ENLHFQS": 0.0666, "area with substrate ENLLFQS": 0.0574, "area with substrate ENLRFQS": 0.0634, "area with substrate ENLTFQS": 0.0632, "area with substrate ENLWFQS": 0.0587}, {"variant": "Y179I", "area with substrate ENLDFQS": 0.0683, "area with substrate ENLEFQS": 0.0665, "area with substrate ENLGFQS": 0.0543, "area with substrate ENLHFQS": 0.0744, "area with substrate ENLIFQS": 0.0611, "area with substrate ENLKFQS": 0.0669, "area with substrate ENLLFQS": 0.0705, "area with substrate ENLNFQS": 0.0744, "area with substrate ENLRFQS": 0.0646, "area with substrate ENLSFQS": 0.0633}]}]}
